In all, about 110,000 compounds were measured (“z-score”: median about -0.1, highest 2% from about 2 on). Some of the results follow. The source made the active and inactive calls.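 Rule for the calls: active = z-score in the third read window above 3 or below -3; inactive = the rest.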
These molecules were tested against Metabotropic glutamate receptor 8 (Rattus norvegicus) (UniProt P70579) (assay: rat mGluR8 modulators via GIRK flux, primary screen, cell-based, thallium flux, HTS (AID 488969)). Conditions: HEK293 rat mGluR8, GIRK (G protein-gated inwardly rectifying potassium channel) thallium flux, FluoZin2; at 10 µM; stronger effect = higher value; submaximal glutamate (EC20) added with thallium.
Chain of UniProt P70579 (P70579 whole entry, looked up): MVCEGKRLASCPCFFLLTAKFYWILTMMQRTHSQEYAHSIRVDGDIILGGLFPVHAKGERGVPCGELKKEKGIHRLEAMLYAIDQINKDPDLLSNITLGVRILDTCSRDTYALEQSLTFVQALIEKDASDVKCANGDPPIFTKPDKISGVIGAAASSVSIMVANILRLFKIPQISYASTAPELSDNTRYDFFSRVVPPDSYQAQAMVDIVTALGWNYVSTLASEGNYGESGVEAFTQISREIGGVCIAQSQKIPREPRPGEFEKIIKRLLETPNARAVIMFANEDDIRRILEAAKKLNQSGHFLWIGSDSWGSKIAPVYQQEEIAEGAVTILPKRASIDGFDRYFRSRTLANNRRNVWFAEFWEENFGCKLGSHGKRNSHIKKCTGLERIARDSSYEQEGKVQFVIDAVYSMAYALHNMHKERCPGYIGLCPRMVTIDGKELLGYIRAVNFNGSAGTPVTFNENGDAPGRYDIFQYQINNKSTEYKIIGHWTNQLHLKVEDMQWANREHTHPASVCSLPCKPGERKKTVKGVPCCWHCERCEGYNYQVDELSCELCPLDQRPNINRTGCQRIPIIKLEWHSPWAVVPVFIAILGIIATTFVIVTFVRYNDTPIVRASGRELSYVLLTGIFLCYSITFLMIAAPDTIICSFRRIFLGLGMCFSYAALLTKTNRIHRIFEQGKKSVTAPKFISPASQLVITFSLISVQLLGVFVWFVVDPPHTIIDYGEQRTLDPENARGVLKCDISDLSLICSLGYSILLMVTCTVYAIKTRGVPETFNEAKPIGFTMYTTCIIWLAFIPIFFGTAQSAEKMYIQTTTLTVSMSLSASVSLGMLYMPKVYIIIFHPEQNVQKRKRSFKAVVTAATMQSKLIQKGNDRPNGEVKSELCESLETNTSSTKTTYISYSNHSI

SMILES	z-score
Cc1oc(C(C)(C)C)c(CN2CCCC2)c1C(=O)O	0.37
O=C(Cn1ncc2c(=O)oc3ccccc3c21)NC1CC1	0.255
Cc1nc(C)c2c(c1C(F)(F)F)-c1ccccc1C2(F)F	-0.325
Cc1ccc(Cn2nnnc2CN2CCC(NC(=O)c3ccccc3F)CC2)cc1	0.0907
CCOc1ccc(NC(=O)C(C)Oc2ccccc2C(=O)Nc2cccc(Cl)c2Cl)cc1 (stereo not drawn)	0.00389
Cc1cc(C)cc(NC(=O)CN2CCc3ccccc3C2)c1	-0.0879
CCOC(=O)c1ccc(NC(=O)c2cn(-c3ccccc3)nc2-c2ccncc2)cc1	0.0205
CCOC(=O)Cn1c(=N)n(CCOc2ccc3ccccc3c2)c2ccccc21	1.25
COc1cc(NC(=O)CN(C)S(=O)(=O)c2ccc(C)cc2)cc(OC)c1	0.473
COc1cccc(CNC(=O)C23CN(Cc4ccccc4)CC2C(c2ccc([N+](=O)[O-])cc2)=NO3)c1 (stereo not drawn)	-0.147
CN(c1ccc(C(=O)Nc2ccccc2C(=O)N2CCOCC2)cc1)S(C)(=O)=O	0.153
CCOc1ccc(NC(=O)CSc2nnc(-c3ccccc3)n2N)cc1	0.513
CCCn1c(SCC(=O)/C(C#N)=C(\C)N)n[nH]c1=O	-0.649
COc1cccc(OCCNc2cc(N3CCCCC3)ccc2[N+](=O)[O-])c1	-0.298
O=C(CC1(O)C(=O)Nc2ccccc21)c1ccc(-n2cccc2)cc1 (stereo not drawn)	-0.227
O=C1c2ccccc2NC(c2cccc(F)c2)N1Cc1ccco1 (stereo not drawn)	-1.14
CCCC(C)C(=O)Nc1ccc(NC(C)=O)cc1 (stereo not drawn)	-0.433
COc1ccc(N2CCN(Cc3cc(=O)oc4ccc(C)cc34)CC2)cc1	0.156
Cc1[nH]n(-c2ccc([N+](=O)[O-])cc2)c(=O)c1C=NCCc1c[nH]c2ccccc12	0.545
C=CCOC(=O)C1=C(C)NC(SCC(=O)Nc2nccs2)=C(C#N)C1c1ccc(Cl)cc1 (stereo not drawn)	-0.171
O=C(c1nn2cccnc2c1Cl)N1CCN(c2ccccc2)CC1	0.704
CCOc1cc(N2CCOCC2)c(OCC)cc1NC(=O)CSc1cccc[n+]1[O-]	-0.193

SMILES	z-score
COc1ccc(-c2cn(-c3ccc(C)cc3)c(=O)n2CC(=O)Nc2cccc(F)c2)cc1	0.0589
CSc1ccc(CNc2ccc(Cl)cc2)cc1	-0.0523
Cc1ccc(CNC(=O)CCn2nc(-c3ccc(Cl)cc3)ccc2=O)cc1	0.0696
O=C(CNC(c1ccccc1)c1ccccc1)Nc1c(F)cccc1F	0.24
Cc1ccc2c(c1)c(N=NC(N)=S)c(O)n2Cc1ccccc1	2.88
N#Cc1c[nH]n2c(=O)c3c(nc12)CCCC3	-0.482
CCN(Cc1cc2cc(C)ccc2[nH]c1=O)C(=O)c1cccc(OC)c1	-0.184
O=C(c1ccc(COc2c(F)c(F)cc(F)c2F)o1)N1CCN(c2ccc(Cl)cc2)CC1	-0.254
CN1CCN(S(=O)(=O)c2ccc(NC(=O)C3CCCO3)cc2)CC1 (stereo not drawn)	0.199
CC(=O)N1CCN(c2ccc(NC(=O)COc3ccc(Cl)cc3Cl)cc2)CC1	-0.128
Nc1nc(CN2CCCCC2)cs1	0.0391
Cc1nc(SCC(O)CCl)c([N+](=O)[O-])[nH]1 (stereo not drawn)	0.302
CC1(C)CC(=O)c2cc3c(nc2C1)CC(C)(C)CC3=O	0.0627
CCNc1nc(NCC)n2c(SC(C(=O)Nc3cc(Cl)cc(Cl)c3)c3ccccc3)nnc2n1 (stereo not drawn)	-0.372
CCN(CC)/C(=N/S(=O)(=O)c1ccc(C)cc1)c1ccccc1	-0.0744
Cc1ccc(S(=O)(=O)N2CCC(n3nnc4cc(C)ccc43)CC2)cc1	0.616
CN1CCN(c2nc(-c3ccco3)cc(C(F)(F)F)n2)CC1	0.276
CC1CCN(C(=O)CSc2nnc(CNc3ccc(F)cc3)n2Cc2ccco2)CC1	-0.0551
O=C1NC(=O)C2C1C(c1ccccc1)N1C3C(=O)NC(=O)C3C(c3ccccc3)N21 (stereo not drawn)	0.0962
Cc1cnc2cc([N+](=O)[O-])ccc2n1	0.0184
COC(=O)c1ccccc1NC(=O)c1cncc(Br)c1	0.0863
COc1cccc(NC(=O)CSc2ncnc3c2oc2ccccc23)c1	-0.957

SMILES	z-score
COc1ccc(OC)c(NC(=O)CSc2nnc(-c3ccco3)n2-c2ccccc2)c1	-0.852
Oc1c(-c2cc(-c3ccco3)[nH]n2)ccc2ccccc12	-0.0554
COc1cccc(N/C(N)=N/c2nc(C(F)(F)F)cc(=O)[nH]2)c1	-0.116
O=C(CSc1nnc(C2COc3ccccc3O2)o1)N1CCOCC1 (stereo not drawn)	0.302
NC(=S)Cc1nc2n(n1)Cc1ccccc1-2	-0.229
O=C(Cn1ccc2ccccc2c1=O)NCCC(=O)N1CCN(c2cccc(Cl)c2)CC1	0.0135
Cc1cc(C)n(-c2cc(N3CCN(S(=O)(=O)c4ccc(Cl)cc4)CC3)ccc2[N+](=O)[O-])n1	-0.751
CCN(CC)C(=O)/C(=C\c1ccc2c(c1)OCO2)NC(=O)c1ccc(Br)cc1	-0.175
Clc1ccccc1-c1nnc2sc(-c3ccc(Br)o3)nn12	0.0969
O=C(c1ccc(CN2CCc3ccccc3C2)cc1)N1CCc2ccccc2C1	-0.874
COC(=O)c1ccc(OC)cc1OCC(=O)N1CCN(c2ccc(F)cc2)CC1	-0.137
Cc1cccc(N2C(=O)CSC2c2cccnc2)c1 (stereo not drawn)	0.57
Cc1cccn2c(=O)c3cc(C(=O)NC4CCS(=O)(=O)C4)sc3nc12 (stereo not drawn)	-0.276
CN(C)S(=O)(=O)n1cnc2ccccc21	-0.297
COC(=O)c1ccccc1NC(=O)C1COc2ccccc2O1 (stereo not drawn)	-0.34
Cc1ccc(C)c(S(=O)(=O)N2CCN(C(C)C(=O)Nc3ccccc3-c3ccccc3)CC2)c1 (stereo not drawn)	0.151
COc1ccc(OC)c(CN(CCCN2CCOCC2)S(=O)(=O)c2ccc(NC(C)=O)cc2)c1	-0.129
CC(=O)N1C2CCCCC2S[C@H]2CCCCC21 (stereo partly drawn)	0.0384
COc1ccc(NC(=O)CN2CCC(C)CC2)cc1	0.468
CN1CCCN(S(=O)(=O)c2ccc3c(c2)OCCO3)CC1	0.0526
CCC(=O)NCc1c(Cl)cccc1-n1cccc1	1.16
CN(C)c1ccc(N=Nc2ccccc2C(=O)OCC(=O)N2CCCCCC2)cc1	-0.0207

SMILES	z-score
O=C(CSCc1ccccc1Cl)NNC(=O)c1ccccc1	0.0119
Cc1nc2ccc3nc(NC(=O)c4ccc(S(=O)(=O)N5CCOCC5)cc4)sc3c2s1	-0.108
CC(C)Cn1c(N)c(C(=O)COC(=O)c2cc(-c3ccco3)nc3ccccc23)c(=O)n(C)c1=O	-0.566
CC(C)n1c(Nn2cnnc2)nc2ccccc21	-0.0561
O=C(CN1C(=O)c2ccccc2S1(=O)=O)N1CCN(c2ccccc2)CC1	-0.193
Cc1ccc(NC(=O)c2ccc(NCCN)c([N+](=O)[O-])c2)cc1Cl	0.33
CCN1CC=C2C(C#N)=C(N)C(C#N)(C#N)[C@H](c3cccc(OC)c3OC)[C@H]2C1	-2.76
O=C(CN1CCN(S(=O)(=O)c2ccccc2)CC1)NC(=O)NCc1ccccc1	-0.0544
CCOC(=O)c1cnc2c(C)c(-c3ccccc3)[nH]n2c1=O	-0.434
CCN(CC)C1=CC(=O)OC12CCCCC2	0.00216
CC(C)CCn1c(SCC#N)nc2c(sc3ccccc32)c1=O	active: 5.93
COC(=O)c1ccc(NS(=O)(=O)c2ccc(SC)cc2)cc1	active: 5.24
CC(=O)N1CCN(C(=O)CSc2nc3c(cnn3-c3ccccc3)c(=O)[nH]2)CC1	0.574
COc1cccc(N(CC(=O)NCCSc2ccc(Cl)cc2)S(C)(=O)=O)c1	-0.141
C=CCn1c(SCc2csc(C)n2)nc2sc3c(c2c1=O)CCCCC3	-0.339
Nc1c(C(O)(C(F)(F)F)C(F)(F)F)ccc2ccccc12	-0.382
O=C(CSc1ncccn1)N/N=C/c1cccs1	-0.191
CC(C)C[C@H](NC(=O)N1CCN(c2ccccc2)CC1)C(=O)O	-0.289
COc1cc(OC)c(NC(=O)c2ccco2)cc1Cl	-0.103
c1ccc(-c2nnc(C(c3ccccc3)c3ccccc3)o2)cc1	-0.326
COc1ccc(NC(=O)CSc2nc3ccccc3c(=O)n2CCCN2CCCCC2)c(OC)c1	active: 3.69
O=C(O)CN1C(=O)c2cccc(Oc3ccc(Cl)cc3)c2C1=O	-0.259

SMILES	z-score
CC1Oc2ccccc2OC1C(=O)Nc1ccccn1 (stereo not drawn)	0.0229
Cc1ccc(-n2c(=O)[nH]c3c(C(N)=O)nc(-c4ccc(C)o4)nc32)cc1	-0.33
Cc1ccc(/C=N/N2CCN(Cc3cccc4ccccc34)CC2)o1	-0.174
N/C(=N\OC(=O)CCCOc1ccccc1)c1ccccc1	0.0166
Cc1ccc(NC(=O)c2ccc(Nc3ccccc3F)nc2)cc1	0.372
CCOc1ccc(-n2c(=S)sc3c(=O)[nH]c(SCC(=O)N4CCC(C)CC4)nc32)cc1	-1.74
CC(/C=N/NC(=O)Cn1nccc1C)=C\c1ccc(C(C)C)cc1	-0.222
CC(C)(C)C(=O)c1sc(Nc2ccccc2)nc1N	-0.773
COc1ccc(C(=O)NCc2cn3ccccc3n2)cc1	-1.15
CC(C)c1ccccc1NC(=O)c1ccc(CN(c2ccccc2)S(=O)(=O)c2ccccc2)cc1	0.067
Cc1cc(NC(=O)CCN2C(=O)c3ccccc3C2=O)no1	-0.00975
COc1cc(C(C)=O)ccc1COc1ccc(C(=O)OC(C)C(=O)NC(N)=O)cc1OC (stereo not drawn)	-0.295
Cc1ccc2cc(C#N)c(N3CCCN(S(=O)(=O)c4ccccc4)CC3)nc2c1C	0.028
Cn1c(=O)c2c(ncn2Cc2ccccc2)n(C)c1=O	0.312
C/C(Cn1nnc2ccccc21)=N\OC(=O)c1ccccc1C	-0.123
CC(=O)NC1C(OCCOc2ccc(Cl)cc2Cl)OC(COC(C)=O)C(OC(C)=O)C1OC(C)=O (stereo not drawn)	-0.133
Cc1ccc(S(=O)(=O)N/N=C2/CCCCC2C2CCCCC2)cc1[N+](=O)[O-] (stereo not drawn)	0.108
O=C(CN1CCCCC1)Nc1nnc(-c2ccccc2)s1	-0.249
CCN(CC)C(=O)c1sc(NC(=O)c2ccco2)c(C#N)c1C	-0.102
Cc1ccc(C(=O)CC2(O)C(=O)N(C)c3ccc(Br)cc32)c(C)c1 (stereo not drawn)	0.0794

Source: PubChem BioAssay AID488969 (Vanderbilt High Throughput Screening Facility, 2010)
